# In the supplement of paper PMC10037445:
# Whole data set: some 2,900 compounds, median “NF-kB SEAP reporter activity, fold change vs agonist alone” near 0.99, cut for the highest 2% near 2.6. This is one part of the list.
# How the values were obtained:
# [1] = system: RAW-Dual; assay: NF-kB SEAP reporter activity, fold change vs agonist alone; cytotoxicity flag (confluency mask): not cytotoxic; higher = enhanced NF-kB activity
# Method in brief: (§1)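 Cytotoxic wells were those whose IncuCyte confluency was below 70% of agonist controls in both mask sets. The cells were RAW-Dual macrophages at 50,000 cells/well in DMEM on 384-well plates, dosed with 50 nL of library stock by pin tool, stimulated with a PRR agonist 1 h later, and kept at 37 °C, 5% CO2 for 20 hours. IRF and NF-κB reporter activity, as fold change over agonist-alone wells, came from supernatant read by QuantiLuc luminescence and QuantiBlue absorbance, respectively.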
# [2] = system: RAW-Dual; assay: NF-kB SEAP reporter activity, fold change vs agonist alone; higher = enhanced NF-kB activity; settings: library stock concentration (final ~1000-fold dilution): 10 mM
# Method in brief: as §1
# [3] = system: RAW-Dual; assay: NF-kB SEAP reporter activity, fold change vs agonist alone; cytotoxicity flag (confluency mask): cytotoxic (confluency <70% of control); higher = enhanced NF-kB activity
# Method in brief: as §1
# [4] = agonist: ODN 1826 (TLR9) 0.5 ug/mL
# [5] = agonist: Pam2CSK4 (TLR2/6) 0.1 ug/mL
# [6] = agonist: Pam3CSK4 (TLR2/1) 0.1 ug/mL
# [7] = cytotoxicity flag (confluency mask): not cytotoxic, agonist: Imiquimod (TLR7) […]
# [8] = cytotoxicity flag (confluency mask): not cytotoxic, agonist: MPLA (TLR4) […]
# [9] = cytotoxicity flag (confluency mask): cytotoxic (confluency <70% of control), agonist: Imiquimod (TLR7) […]
# [10] = cytotoxicity flag (confluency mask): cytotoxic (confluency <70% of control), agonist: MPLA (TLR4) […]
smiles,measurement,setting,value
CN1CCC(=C2c3ccccc3C=Cc3ccccc32)CC1.Cl (library stock concentration (final ~1000-fold dilution): 10 mM),NF-kB SEAP reporter activity,[1]; agonist: LPS (TLR4) 0.1 ug/mL,1.41
same,NF-kB SEAP reporter activity,[1]; [4],0.731
same,NF-kB SEAP reporter activity,[1]; [5],0.752
same,NF-kB SEAP reporter activity,[1]; [6],0.899
Cc1ncc(-c2ccnc(Nc3ccc(S(C)(=O)=O)cc3)n2)n1C(C)C,NF-kB SEAP reporter activity,[2]; [7],0.914
same,NF-kB SEAP reporter activity,[2]; [8],0.947
Cc1ncc(-c2ccnc(Nc3ccc(S(C)(=O)=O)cc3)n2)n1C(C)C (library stock concentration (final ~1000-fold dilution): 10 mM),NF-kB SEAP reporter activity,[1]; agonist: LPS (TLR4) 0.1 ug/mL,0.247
same,NF-kB SEAP reporter activity,[1]; [4],0.908
same,NF-kB SEAP reporter activity,[1]; [5],0.139
same,NF-kB SEAP reporter activity,[1]; [6],0.941
CCc1ccc(-c2nc(CSCC(=O)NCCc3ccccc3)c(C)o2)cc1 (library stock concentration (final ~1000-fold dilution): 10 mM),NF-kB SEAP reporter activity,[1]; agonist: LPS (TLR4) 0.1 ug/mL,1.09
same,NF-kB SEAP reporter activity,[1]; [4],0.643
same,NF-kB SEAP reporter activity,[1]; [5],0.64
same,NF-kB SEAP reporter activity,[1]; [6],0.791
CCc1ccc(-c2nc(CSCC(=O)NCCc3ccccc3)c(C)o2)cc1,NF-kB SEAP reporter activity,[2]; [7],0.991
same,NF-kB SEAP reporter activity,[2]; [8],1.06
CCCCCCCCCC(=O)OC1(c2ccc(Cl)cc2)CCN(CCCC(=O)c2ccc(F)cc2)CC1,NF-kB SEAP reporter activity,[2]; [7],0.904
same,NF-kB SEAP reporter activity,[2]; [8],1.03
CCCCCCCCCC(=O)OC1(c2ccc(Cl)cc2)CCN(CCCC(=O)c2ccc(F)cc2)CC1 (library stock concentration (final ~1000-fold dilution): 10 mM),NF-kB SEAP reporter activity,[1]; agonist: LPS (TLR4) 0.1 ug/mL,1.14
same,NF-kB SEAP reporter activity,[1]; [4],1.04
same,NF-kB SEAP reporter activity,[1]; [5],1.06
same,NF-kB SEAP reporter activity,[1]; [6],1.26
CC(O)Cn1cnc2c1c(=O)n(C)c(=O)n2C (stereo unspecified) (library stock concentration (final ~1000-fold dilution): 10 mM),NF-kB SEAP reporter activity,[1]; agonist: LPS (TLR4) 0.1 ug/mL,1.09
same,NF-kB SEAP reporter activity,[1]; [4],0.96
same,NF-kB SEAP reporter activity,[1]; [5],1.02
same,NF-kB SEAP reporter activity,[1]; [6],0.908
CC(O)Cn1cnc2c1c(=O)n(C)c(=O)n2C (stereo unspecified),NF-kB SEAP reporter activity,[2]; [8],0.976
COCCNCCc1cccc(Nc2ncc3c(n2)-c2ccccc2C(c2ccccc2F)C3)c1 (stereo unspecified) (library stock concentration (final ~1000-fold dilution): 10 mM),NF-kB SEAP reporter activity,[3]; agonist: LPS (TLR4) 0.1 ug/mL,0.391
same,NF-kB SEAP reporter activity,[3]; [4],0.296
same,NF-kB SEAP reporter activity,[3]; [5],0.164
same,NF-kB SEAP reporter activity,[3]; [6],0.345
COCCNCCc1cccc(Nc2ncc3c(n2)-c2ccccc2C(c2ccccc2F)C3)c1 (stereo unspecified),NF-kB SEAP reporter activity,[2]; [9],1.33
same,NF-kB SEAP reporter activity,[2]; [10],0.885
Cc1ccc2nc(CN(CCN(Cc3nc4ccc(C)cc4[nH]3)Cc3nc4ccc(C)cc4[nH]3)Cc3nc4ccc(C)cc4[nH]3)[nH]c2c1 (library stock concentration (final ~1000-fold dilution): 10 mM),NF-kB SEAP reporter activity,[3]; agonist: LPS (TLR4) 0.1 ug/mL,0.204
same,NF-kB SEAP reporter activity,[3]; [4],0.073
same,NF-kB SEAP reporter activity,[3]; [5],0.0631
same,NF-kB SEAP reporter activity,[3]; [6],0.122
Cc1ccc2nc(CN(CCN(Cc3nc4ccc(C)cc4[nH]3)Cc3nc4ccc(C)cc4[nH]3)Cc3nc4ccc(C)cc4[nH]3)[nH]c2c1,NF-kB SEAP reporter activity,[2]; [9],0.0677
same,NF-kB SEAP reporter activity,[2]; [10],0.0634
Cc1ccc(C(=O)Nc2ccc(Oc3cc4cnn(C)c4cc3-c3cn[nH]c3)c(F)c2)c(=O)n1-c1ccc(F)cc1 (library stock concentration (final ~1000-fold dilution): 10 mM),NF-kB SEAP reporter activity,[1]; agonist: LPS (TLR4) 0.1 ug/mL,0.964
same,NF-kB SEAP reporter activity,[1]; [4],0.353
same,NF-kB SEAP reporter activity,[1]; [5],0.264
same,NF-kB SEAP reporter activity,[1]; [6],0.207
Cc1ccc(C(=O)Nc2ccc(Oc3cc4cnn(C)c4cc3-c3cn[nH]c3)c(F)c2)c(=O)n1-c1ccc(F)cc1,NF-kB SEAP reporter activity,[2]; [7],0.399
same,NF-kB SEAP reporter activity,[2]; [8],0.526
N#CCNC(=O)c1ccc(-c2ccnc(Nc3ccc(N4CCOCC4)cc3)n2)cc1 (library stock concentration (final ~1000-fold dilution): 10 mM),NF-kB SEAP reporter activity,[1]; agonist: LPS (TLR4) 0.1 ug/mL,0.233
same,NF-kB SEAP reporter activity,[1]; [4],1.01
same,NF-kB SEAP reporter activity,[1]; [5],0.233
same,NF-kB SEAP reporter activity,[1]; [6],1.08
N#CCNC(=O)c1ccc(-c2ccnc(Nc3ccc(N4CCOCC4)cc3)n2)cc1,NF-kB SEAP reporter activity,[2]; [7],1.02
same,NF-kB SEAP reporter activity,[2]; [8],0.925
CNC(=O)c1cc(Oc2ccc3nc(NC4CCCCC4O)sc3c2)ccn1 (stereo unspecified),NF-kB SEAP reporter activity,[2]; [7],0.907
same,NF-kB SEAP reporter activity,[2]; [8],0.999
CNC(=O)c1cc(Oc2ccc3nc(NC4CCCCC4O)sc3c2)ccn1 (stereo unspecified) (library stock concentration (final ~1000-fold dilution): 10 mM),NF-kB SEAP reporter activity,[1]; agonist: LPS (TLR4) 0.1 ug/mL,1.19
same,NF-kB SEAP reporter activity,[1]; [4],1.01
same,NF-kB SEAP reporter activity,[1]; [5],1.06
same,NF-kB SEAP reporter activity,[1]; [6],0.927
CCC1C(=O)N(C)c2cnc(Nc3ccc(C(=O)NC4CCN(C)CC4)cc3OC)nc2N1C1CCCC1 (stereo unspecified) (library stock concentration (final ~1000-fold dilution): 10 mM),NF-kB SEAP reporter activity,[3]; [6],3.64
O=C(/C=C/c1ccc(O)cc1)c1ccc(O)cc1O (library stock concentration (final ~1000-fold dilution): 10 mM),NF-kB SEAP reporter activity,[1]; agonist: LPS (TLR4) 0.1 ug/mL,1.5
same,NF-kB SEAP reporter activity,[1]; [4],0.82
same,NF-kB SEAP reporter activity,[1]; [5],1.46
same,NF-kB SEAP reporter activity,[1]; [6],1.39
O=C(/C=C/c1ccc(O)cc1)c1ccc(O)cc1O,NF-kB SEAP reporter activity,[2]; [7],1.62
same,NF-kB SEAP reporter activity,[2]; [8],1.38
CN1CCc2c(c3ccccc3n2Cc2ccc(C(=O)NO)cc2)C1 (library stock concentration (final ~1000-fold dilution): 10 mM),NF-kB SEAP reporter activity,[1]; agonist: LPS (TLR4) 0.1 ug/mL,1.15
same,NF-kB SEAP reporter activity,[1]; [4],1.21
same,NF-kB SEAP reporter activity,[1]; [5],0.779
same,NF-kB SEAP reporter activity,[1]; [6],1.15
CN1CCc2c(c3ccccc3n2Cc2ccc(C(=O)NO)cc2)C1,NF-kB SEAP reporter activity,[2]; [7],1
same,NF-kB SEAP reporter activity,[2]; [8],1.11
CN(C)C(=O)c1ccc(S(=O)(=O)c2ccc(NC(=O)C(C)(O)C(F)(F)F)c(Cl)c2)cc1 (stereo unspecified),NF-kB SEAP reporter activity,[2]; [7],0.832
same,NF-kB SEAP reporter activity,[2]; [8],1.13
CN(C)C(=O)c1ccc(S(=O)(=O)c2ccc(NC(=O)C(C)(O)C(F)(F)F)c(Cl)c2)cc1 (stereo unspecified) (library stock concentration (final ~1000-fold dilution): 10 mM),NF-kB SEAP reporter activity,[1]; agonist: LPS (TLR4) 0.1 ug/mL,1.58
same,NF-kB SEAP reporter activity,[1]; [4],1.11
same,NF-kB SEAP reporter activity,[1]; [5],0.943
same,NF-kB SEAP reporter activity,[1]; [6],1.17
